Experimental findings from PubChem BioAssay AID488969 (Vanderbilt High Throughput Screening Facility, 2010) are described below.

SMILES strings stand for the structures. Over roughly 110,000 compounds, “z-score” has its median near -0.1; the highest 2% begin near 2. This is one part of the list.

The test concerns the target Metabotropic glutamate receptor 8 (Rattus norvegicus) (UniProt P70579). Description: mGluR8 Gi/Go-coupled signaling modulation – cell-based, rat, thallium flux, HTS, primary screen (AID 488969). The following applies: HEK293 rat mGluR8, GIRK (G protein-gated inwardly rectifying potassium channel) thallium flux, FluoZin2; at 10 µM; stronger effect = higher value; submaximal glutamate (EC20) added with thallium.
UniProt P70579, sequence (P70579 whole entry, looked up): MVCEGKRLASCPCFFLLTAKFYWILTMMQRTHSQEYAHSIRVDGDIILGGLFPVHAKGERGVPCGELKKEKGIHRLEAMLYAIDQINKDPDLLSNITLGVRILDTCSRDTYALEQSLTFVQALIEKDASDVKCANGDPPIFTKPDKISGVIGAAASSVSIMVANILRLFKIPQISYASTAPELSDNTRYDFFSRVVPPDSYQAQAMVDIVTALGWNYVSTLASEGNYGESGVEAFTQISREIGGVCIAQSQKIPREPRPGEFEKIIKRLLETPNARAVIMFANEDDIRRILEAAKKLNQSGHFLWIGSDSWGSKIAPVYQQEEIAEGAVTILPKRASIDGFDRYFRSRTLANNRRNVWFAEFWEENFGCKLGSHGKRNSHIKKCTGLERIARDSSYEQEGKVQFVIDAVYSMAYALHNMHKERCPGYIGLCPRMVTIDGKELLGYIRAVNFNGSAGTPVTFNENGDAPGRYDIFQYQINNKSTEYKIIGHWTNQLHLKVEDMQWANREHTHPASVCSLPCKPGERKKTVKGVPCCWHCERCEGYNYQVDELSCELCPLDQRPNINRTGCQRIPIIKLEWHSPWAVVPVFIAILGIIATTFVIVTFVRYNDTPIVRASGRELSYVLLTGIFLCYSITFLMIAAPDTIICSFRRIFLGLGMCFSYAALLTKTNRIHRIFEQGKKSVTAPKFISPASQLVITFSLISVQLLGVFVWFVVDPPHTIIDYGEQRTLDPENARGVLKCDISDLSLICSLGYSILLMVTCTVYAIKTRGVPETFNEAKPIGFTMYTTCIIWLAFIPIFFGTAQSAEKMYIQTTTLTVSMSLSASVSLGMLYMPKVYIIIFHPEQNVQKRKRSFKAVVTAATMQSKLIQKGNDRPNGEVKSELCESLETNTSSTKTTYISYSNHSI
On to `COc1cccc(NS(=O)(=O)c2ccc3c(c2)C2C=CCC2C(c2ccc(C(=O)O)cc2)N3)c1` (stereo unspecified), for which the z-score is -0.315.

`COc1cc(NS(C)(=O)=O)c(OC)cc1NC(=O)c1ccccc1` returned a z-score of 0.0936.

Regarding `Cc1ccc(S(=O)(=O)NCCCN2CCOCC2)cc1C`, the z-score was -0.132. `Nc1c(C(=O)c2ccc(Cl)cc2)sc2c1c(=O)[nH]c(=O)n2-c1ccccc1`: the z-score was -0.486. With `CCOC(=O)C1CCN(C(=O)COc2cc(C)c(Br)cc2C)CC1`, the z-score was -1.3. Consider `NC(=S)N/N=C/c1ccc2ccccc2c1`, for which the z-score was -0.0916. On to `O=C(CCC1CCCCC1)NCc1ccncc1`, for which the z-score amounted to 0.303. Consider `CC(OC(=O)c1cc(=O)[nH]c2ccccc12)c1ccccc1` (stereo unspecified), for which the z-score is -0.299. The compound `Cc1cc(C(=O)O)c2ccccc2n1` showed a z-score of 0.787. With `O=C(CSc1ncnc2c1cnn2-c1ccc(F)cc1)NCc1ccc2c(c1)OCO2`, the z-score turned out to be 0.54. Regarding `COc1cccc(CNc2nc3ccccc3n2CCN2CCCCC2)c1`, the z-score is 0.395. Take `CCOc1ccccc1NC(=O)C(OC(=O)c1ccc(O)cc1)c1ccccc1` (stereo unspecified): the z-score was -0.238. `CCOC(=O)c1sc2nc(NC(=O)COc3ccccc3)sc2c1C`: the z-score was found to be 0.358. `O=C(NCc1ccco1)C1CCN(S(=O)(=O)N2CCC3(CC2)OCCO3)CC1`: the z-score is 0.205. For the compound `CCCSC(=S)NC1CCS(=O)(=O)C1` (stereo unspecified), the z-score was -0.344. `CC(C(=O)NCC1CCCO1)N(C(=O)c1snc(C(N)=O)c1N)c1ccccc1` (stereo unspecified): the z-score was -0.0824. As for `Cn1c(=O)c2cc(S(=O)(=O)NC(Cc3ccccc3)C(=O)NCc3ccco3)ccc2n(C)c1=O` (stereo unspecified), the figure is 0.174; as for `Cc1nnc(SCC(=O)Nc2ccc3c(c2)OCCO3)s1`, 0.669. For `CCOC(=O)c1[nH]c(C)c(C(=O)N2CCN(C(=O)c3ccco3)CC2)c1C`, the z-score was -0.333.

With `Nn1c(SCC(=O)N2CCN(S(=O)(=O)c3ccc(Cl)cc3)CC2)nnc1-c1cccs1`, the z-score was -0.22.

As for `Cc1ccc(-n2nnnc2SCC(=O)N2CC(=O)Nc3ccccc32)cc1`, the z-score was -0.327. `COc1ccc(C2c3sc(=O)[nH]c3SC3C4CCC(C4)C23)cc1OC` (stereo unspecified) yielded a z-score of 0.72. Consider `O=C(CN1CCOCC1)Nc1ncc(Cc2cccc3ccccc23)s1`, for which the z-score is -0.232. Regarding `O=C(CC(SCCO)c1ccc(F)cc1)c1ccco1` (stereo unspecified), the z-score was -0.352. With `O=C(NCc1ccco1)C1(c2ccccc2)CCCC1`, the z-score was -0.175.

As to `Fc1cccc(CO/N=C/c2c(-c3ccccc3)nc3ccc(Cl)cn23)c1`, the z-score is -0.244. For `CCc1nc(OCCN(C)C)c2oc3ccccc3c2n1`, the z-score is -1.28.

`CCCCn1c(-c2csc(CC)c2)n[nH]c1=S`: the z-score was 2.15. For the compound `O=C(CC1SC(N2CCCCC2)=NC1=O)Nc1cccc(C(=O)O)c1` (stereo unspecified), the z-score came to 0.134. As for `COc1cc(Br)cc2cc(C(=O)N3CCCCC3C)c(=O)oc12` (stereo unspecified), the z-score is -0.52.

As for `NC(=O)c1ncc(C(F)(F)F)cc1Oc1ccc(C(F)(F)F)cc1`, the z-score was -0.58.
